To fix the notation:
B1: CPEB3 Ribozyme (parent)
chain: UAACAGGGGGCCACAGCAGAAGCGUUCACGUCGCAGCCCCUGUCAGAUUCUGGUGAAUCUGCGAAUUCUGCUGUAUAUCUC

Read counts are not given, so values of variants with three or more changes are uncertain.

In the series the parent is B1. Kind of series: self-cleavage, relative activity (ratio to wild type); higher = more cleavage; in vitro, sequencing. A digest of the protocol:
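After error-prone PCR and barcoding, CPEB3 ribozyme mutant libraries were transcribed with T7 RNA polymerase at 37°C for 5 hours, then given 15 min with DNase I before an EDTA stop, and they cleaved during both steps. Reverse transcription with template switching preceded Illumina sequencing. Relative activity divides a variant's cleaved/total read fraction by the unmutated ribozyme's. At least 5 reads were required per variant, and three batches were averaged.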
As to UAACAGGGGGCCACAGCAGAAGCGUUCACGUCGCAGCCCAUGUCUGAUUCUGGUGAAUCUGCGAAUUCUGCUGUAUAUCUA [C40A A45U C81A], the self-cleavage was determined as 0.2. With UAACAGGGGGCCACAGCAGAAGCGUUCACGUCGCAGCCCAUGUCAGAUUCUGGUGAAACUGCGAAUUCUGCUGUGUAUCUC [C40A U58A A75G], the self-cleavage was found to be 0.29. With UAACAGGGGGCCACAGCAGAAGCGUUCACGUCGCAGCCCUUGUCAGAUUCUGGUGAGUCUGCAAAUUCUGCUGUAUAUCUC [C40U A57G G63A] the figure was 0.49; with UAACAGGGGGCCACAGCAGAAGCGUUCACGUCGCAGCCGCUGUCAGAUUCUGGAGAGUCUGCGAAUUCUGCUGUAUACCUC [C39G U54A A57G U78C], 0.09; with UAACAGGGGGCCACAGCAGAAGCGUUCACGUCGCAGCCCGUGUCAGAUUCUGGUGAUUCUGUGAAUUCUGCUGUAUAUCUC [C40G A57U C62U], 0.09. Regarding UAACAGGGGGCCACAGCAGAAGCGUUCACGUCGCAGCCUCUGCCAGAUUCUGGUGAAUCUGCGAAUCCAGCUGUAUAUCUC [C39U U43C U67C U69A], the self-cleavage came out at 0.22. With UAACAGGGGGCCACAGCAGAAGCGUUCACGUCGCAGCCCCAGUCGGAUUCUGGUGGAUCUGCGAAUUCUGCUGUAUAUCUC [U41A A45G A56G] the figure was 0.33; with UAACAGGGGGCCACAGCAGAAGCGUUCACGUCGCAGCCCAUGUCAGAUUCUGGAGAGUCUGCGAAUUCUGCUGUAUAUCUC [C40A U54A A57G], 0.08. With UAACAGGGGGCCACAGCAGAAGCGUUCACGUCGCAGCCCUUGUCAGAUUCUGGUGUAUCUGCUAAUUCUGCUGUAUAUCUC [C40U A56U G63U] the figure was 0.63; with UAACAGGGGGCCACAGCAGAAGCGUUCACGUCGCAGCCCUUGUCAGAUUCUGGUGAAUCUGCGUAUUCUGCCGUAUAUCUC [C40U A64U U72C], 0.11; with UAACAGGGGGCCACAGCAGAAGCGUUCACGUCGCAGCCUCUGUCAGAUUCUGGUGAAUCCGCGAGUUCUGCUGUAUAUCUC [C39U U60C A65G], 0.19.

Take UAACAGGGGGCCACAGCAGAAGCGUUCACGUCGCAGCCCUUGUCAGAUUCUGCUGAAUCUGUGAAUUCUGCCGUAUAUCUC [C40U G53C C62U U72C]: the self-cleavage stood at 0.38.

On to UAACAGGGGGCCACAGCAGAAGCGUUCACGUCGCAGCCCUUGUCAGAUUCAGGUGAAUCUGCGAAUUCCGCUGUAUAUCUC [C40U U51A U69C], for which the self-cleavage worked out at 0.37. With UAACAGGGGGCCACAGCAGAAGCGUUCACGUCGCAGCCCUUGUCAGGCUCUGGUGAAACUGCGAAUUCUGCUGUAUAUCUC [C40U A47G U48C U58A], the self-cleavage was 0.12. Consider UAACAGGGGGCCACAGCAGAAGCGUUCACGUCGCAGCCCUUGUAAGGUUCUGGUGAAUCUGCGAAUUCUGCUGUAUAUCUC [C40U C44A A47G], for which the self-cleavage turned out to be 0.14. Take UAACAGGGGGCCACAGCAGAAGCGUUCACGUCGCAGCCCAUGCCAGAUUCUGGUGAAUCUGCGAAUUCUGCAGUACAUCUC [C40A U43C U72A U76C]: the self-cleavage stood at 0.14. Turning to UAACAGGGGGCCACAGCAGAAGCGUUCACGUCGCAGCCUCUGUCAGAUUCUGGUGAAUCUGCGAAUCCUGAUGUAUAUCUC [C39U U67C C71A], the self-cleavage is 0.19.

Turning to UAACAGGGGGCCACAGCAGAAGCGUUCACGUCGCAGCCACUGUCAGAUUCUGGUGAAUAUGCGAAUGCUGCUGUAUAUCUC [C39A C59A U67G], the self-cleavage amounted to 0.14.

Take UAACAGGGGGCCACAGCAGAAGCGUUCACGUCGCAGCCACUGUCAGAUCCUGGCGAAUCUGCGAAUUCUGCUGUAUAUCUC [C39A U49C U54C]: the self-cleavage came out at 0.2.

As for UAACAGGGGGCCACAGCAGAAGCGUUCACGUCGCAGCCAUUGUCUGAUUCUGGUGAAUCUGCGAAUUCUGCUGUGUAUCUC [C39A C40U A45U A75G], the self-cleavage stood at 0.1.

On to UAACAGGGGGCCACAGCAGAAGCGUUCACGUCGCAGCCCUCGUCAGAUUCUGGUGAAUCUGCGGAUUCUGCUGUAUAUCUC [C40U U41C A64G], for which the self-cleavage was 0.9. With UAACAGGGGGCCACAGCAGAAGCGUUCACGUCGCAGCCCUUGUCAGAUUCUGGUGUAUCUGCGAAUUCUGCAGUAUAUCUC [C40U A56U U72A] the figure was 0.18; with UAACAGGGGGCCACAGCAGAAGCGUUCACGUCGCAGCCCUUGUCAGGUUCUGGUGAAUCUGCGAGUUCUGCUGUAUAUCUC [C40U A47G A65G], 0.08.

As to UAACAGGGGGCCACAGCAGAAGCGUUCACGUCGCAGCCCGUGUCAGAUUCUGGCGAAUCUGCGAAUCCUGCUGUAUAUCUC [C40G U54C U67C], the self-cleavage turned out to be 0. Then UAACAGGGGGCCACAGCAGAAGCGUUCACGUCGCAGCCGCUGUCAGAUUCUGGUGAAACUGCGAAUUCUGCUGUAUAUCCC [C39G U58A U80C], with 0.44.

For the variant UAACAGGGGGCCACAGCAGAAGCGUUCACGUCGCAGCUCCCGUCAGAUUCUGGUGAUUCUGCGAAUUCUGCUGUAUAUCUC [C38U U41C A57U], the self-cleavage worked out at 0.49.

As for UAACAGGGGGCCACAGCAGAAGCGUUCACGUCGCAGCCCUUGUCAGAUUCUGGUGAAUCUGCGAGUUCUGCUGUAUAUCUU [C40U A65G C81U], the self-cleavage was 0.09. With UAACAGGGGGCCACAGCAGAAGCGUUCACGUCGCAGCCCUUGUCAGAUUCUGGUGGAUGUGCGAAUUCUGCUGUAUAUCUC [C40U A56G C59G] the figure was 0.06; with UAACAGGGGGCCACAGCAGAAGCGUUCACGUCGCAGCCACUGUCAGAUUUUGGUGAGUCUGCGAAUUCAGCUGUAUAUCUC [C39A C50U A57G U69A], 0.13; with UAACAGGGGGCCACAGCAGAAGCGUUCACGUCGCAGCUCCUGUCAGACUCUGGUGAAUCUGCGAACUCUGCUGUAUAUCUC [C38U U48C U66C], 0.12. On to UAACAGGGGGCCACAGCAGAAGCGUUCACGUCGCAGCCCAUGUCGGAUCCUGGUGAAUCCGCGGAUUCACCUGUAUAUCUC [C40A A45G U49C U60C A64G U69A G70C], for which the self-cleavage stood at 0.06.

On to UAACAGGGGGCCACAGCAGAAGCGUUCACGUCGCAGCCACAGUCAGAUUCUGGUGGAUCUGCGAAUUCUGCUGUAUAUCUC [C39A U41A A56G], for which the self-cleavage stood at 0.09. With UAACAGGGGGCCACAGCAGAAGCGUUCACGUCGCAGCCACUGUCAGAUUCUGGUAAAUCUGCGAAUUCUGCUGUAUACCUC [C39A G55A U78C] the figure was 0.3; with UAACAGGGGGCCACAGCAGAAGCGUUCACGUCGCAGCCCUUGUCAGAUUCUGGUGAGUCUGCGGAUUCUGCUGUAUAUCUC [C40U A57G A64G], 0.29.
